# Measurements: the supplement of paper PMC8728848
# The other results are listed elsewhere or left out.
# B1: Eap (Staphylococcus aureus), A0A7L5PYT7 (protein)
# chain: MKFKSLITTTLALGVLASTGANFNNNEAAAAAKPLDKSSSSLHHGYSKVHVPYAITVNGTSQNILSSLTFNKNQNISYKDLEDRVKSVLKSDRGISDIDLRLSKQAKYTVYFKNGTKKVIDLKAGIYTADLINTSEIKAININVDTKKQVEDKKKDKANYQVPYTITVNGTSQNILSNLTFNKNQNISYKDLEDKVKSVLESNRGITDVDLRLSKQAKYTVNFKNGTKKVIDLKSGIYTANLINSSDIKSININVDTKKHIENKAKRNYQVPYSINLNGTSTNILSNLSFSNKPWTNYKNLTSQIKSVLKHDRGISEQDLKYAKKAYYTVYFKNGGKRILQLNSKNYTANLVHAKDVKRIEITVKTGTKAKADRYVPYTIAVNGTSTPILSDLKFTGDPRVGYKDISKKVKSVLKHDRGIGERELKYAKKATYTVHFKNGTKKVININSNISQLNLLYVQDIKKIDIDVKTGTKAKADSYVPYTIAVNGTSTPILSKLKISNKQLISYKYLNDKVKSVLKSERGISDLDLKFAKQAKYTVYFKNGKKQVVNLKSDIFTPNLFSAKDIKKIDIDVKQYTKSKKNK
# Key:
# Experiment in all cases: glycan array binding signal (z-score within array); higher = stronger binding
# Conditions in all cases: glycan notation: IUPAC condensed, linker removed
# [1] = biological target: Gal(b1-4)GlcNAc(b1-3)[GlcNAc(b1-6)]Gal(b1-4)GlcNAc
# Procedure, shortened: (§1)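 Columns mapping to the same glycan were averaged after glycan names were converted to IUPAC-condensed notation. The data come from 3228 arrays in the Consortium for Functional Glycomics database, limited to those with an available protein sequence. Binding is reported as a within-array Z-score averaged across arrays of one protein sequence and across linkers.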
# [2] = biological target: Gal(b1-4)GlcNAc(b1-6)Gal(b1-4)GlcNAc
# Procedure, shortened: as §1
# [3] = biological target: Gal(b1-4)GlcNAc(b1-6)Gal(b1-4)GlcNAc(b1-6)GalNAc
# Procedure, shortened: as §1
# [4] = biological target: Gal(b1-4)GlcNAc(b1-6)GalNAc
# Procedure, shortened: as §1
# [5] = biological target: Gal(b1-4)GlcNAc(b1-6)[Gal(b1-3)]GalNAc
# Procedure, shortened: as §1
# Gal3S(b1-3)GalNAc = biological target: Gal3S(b1-3)GalNAc
# Procedure, shortened: as §1
# Gal3S(b1-3)GlcNAc = biological target: Gal3S(b1-3)GlcNAc
# Procedure, shortened: as §1
# [6] = biological target: Gal3S(b1-3)[Fuc(a1-4)]GlcNAc
# Procedure, shortened: as §1
# Gal3S(b1-4)Glc = biological target: Gal3S(b1-4)Glc
# Procedure, shortened: as §1
# Gal3S(b1-4)Glc6S = biological target: Gal3S(b1-4)Glc6S
# Procedure, shortened: as §1
# Gal3S(b1-4)GlcNAc = biological target: Gal3S(b1-4)GlcNAc
# Procedure, shortened: as §1
# Gal3S(b1-4)GlcNAc6S = biological target: Gal3S(b1-4)GlcNAc6S
# Procedure, shortened: as §1
# [7] = biological target: Gal3S(b1-4)[Fuc(a1-3)]Glc
# Procedure, shortened: as §1
# Gal3S4S(b1-4)GlcNAc = biological target: Gal3S4S(b1-4)GlcNAc
# Procedure, shortened: as §1
# Gal3S6S(b1-4)GlcNAc = biological target: Gal3S6S(b1-4)GlcNAc
# Procedure, shortened: as §1
# Gal3S6S(b1-4)GlcNAc6S = biological target: Gal3S6S(b1-4)GlcNAc6S
# Procedure, shortened: as §1
# Gal4S(b1-4)GlcNAc = biological target: Gal4S(b1-4)GlcNAc
# Procedure, shortened: as §1
# Gal4S6S(b1-4)GlcNAc = biological target: Gal4S6S(b1-4)GlcNAc
# Procedure, shortened: as §1
# Gal6S(b1-4)Glc = biological target: Gal6S(b1-4)Glc
# Procedure, shortened: as §1
# Gal6S(b1-4)Glc6S = biological target: Gal6S(b1-4)Glc6S
# Procedure, shortened: as §1
# Gal6S(b1-4)GlcNAc = biological target: Gal6S(b1-4)GlcNAc
# Procedure, shortened: as §1
# Gal6S(b1-4)GlcNAc6S = biological target: Gal6S(b1-4)GlcNAc6S
# Procedure, shortened: as §1
# GalNAc(a1-3)Gal = biological target: GalNAc(a1-3)Gal
# Procedure, shortened: as §1
# GalNAc(a1-3)GalNAc = biological target: GalNAc(a1-3)GalNAc
# Procedure, shortened: as §1
# GalNAc(b1-3)Gal = biological target: GalNAc(b1-3)Gal
# Procedure, shortened: as §1
# [8] = biological target: GalNAc(b1-3)Gal(a1-4)Gal(b1-4)GlcNAc
# Procedure, shortened: as §1
# [9] = biological target: GalNAc(b1-3)Gal(a1-4)Gal(b1-4)GlcNAc(b1-3)Gal(b1-4)Glc
# Procedure, shortened: as §1
# GalNAc(b1-3)GalNAc = biological target: GalNAc(b1-3)GalNAc
# Procedure, shortened: as §1
# GalNAc(b1-4)GlcNAc = biological target: GalNAc(b1-4)GlcNAc
# Procedure, shortened: as §1
# [10] = biological target: GalNAc(b1-4)GlcNAc(b1-2)Man(a1-3)[GalNAc(b1-4)GlcNAc(b1-2)Man(a1-6)]Man(b1-4)GlcNAc(b1-4)GlcNAc
# Procedure, shortened: as §1
# Glc(a1-4)Glc = biological target: Glc(a1-4)Glc
# Procedure, shortened: as §1
# Glc(a1-6)Glc(a1-6)Glc = biological target: Glc(a1-6)Glc(a1-6)Glc
# Procedure, shortened: as §1
# Glc(b1-4)Glc = biological target: Glc(b1-4)Glc
# Procedure, shortened: as §1
# Glc(b1-6)Glc = biological target: Glc(b1-6)Glc
# Procedure, shortened: as §1
# GlcA(b1-3)Gal = biological target: GlcA(b1-3)Gal
# Procedure, shortened: as §1
# GlcA(b1-3)GlcNAc = biological target: GlcA(b1-3)GlcNAc
# Procedure, shortened: as §1
# GlcA(b1-6)Gal = biological target: GlcA(b1-6)Gal
# Procedure, shortened: as §1
# [11] = biological target: GlcNAc(a1-3)Gal(b1-4)GlcNAc
# Procedure, shortened: as §1
# [12] = biological target: GlcNAc(a1-4)Gal(b1-3)GlcNAc
# Procedure, shortened: as §1
# [13] = biological target: GlcNAc(a1-4)Gal(b1-4)GalNAc
# Procedure, shortened: as §1
# [14] = biological target: GlcNAc(a1-4)Gal(b1-4)GlcNAc
# Procedure, shortened: as §1
# [15] = biological target: GlcNAc(a1-4)Gal(b1-4)GlcNAc(b1-3)Gal(b1-4)Glc
# Procedure, shortened: as §1
# [16] = biological target: GlcNAc(a1-4)Gal(b1-4)GlcNAc(b1-3)Gal(b1-4)GlcNAc
# Procedure, shortened: as §1
# [17] = biological target: GlcNAc(a1-4)Gal(b1-4)GlcNAc(b1-3)Gal(b1-4)GlcNAc(b1-3)Gal(b1-4)GlcNAc
# Procedure, shortened: as §1
# [18] = biological target: GlcNAc(a1-4)Gal(b1-4)GlcNAc(b1-3)Gal(b1-4)[Fuc(a1-3)]GlcNAc(b1-3)Gal(b1-4)[Fuc(a1-3)]GlcNAc
# Procedure, shortened: as §1
# [19] = biological target: GlcNAc(a1-6)Gal(b1-4)GlcNAc
# Procedure, shortened: as §1
# [20] = biological target: GlcNAc(b1-2)Gal(b1-3)GalNAc
# Procedure, shortened: as §1
# [21] = biological target: GlcNAc(b1-2)Man(a1-3)[GlcNAc(b1-2)Man(a1-6)]Man(b1-4)GlcNAc(b1-4)GlcNAc
# Procedure, shortened: as §1
# [22] = biological target: GlcNAc(b1-2)Man(a1-3)[GlcNAc(b1-2)Man(a1-6)]Man(b1-4)GlcNAc(b1-4)[Fuc(a1-6)]GlcNAc
# Procedure, shortened: as §1
# GlcNAc(b1-3)Gal = biological target: GlcNAc(b1-3)Gal
# Procedure, shortened: as §1
# [23] = biological target: GlcNAc(b1-3)Gal(b1-3)GalNAc
# Procedure, shortened: as §1
# GlcNAc(b1-3)Gal(b1-4)Glc = biological target: GlcNAc(b1-3)Gal(b1-4)Glc
# Procedure, shortened: as §1
# [24] = biological target: GlcNAc(b1-3)Gal(b1-4)GlcNAc
# Procedure, shortened: as §1
# [25] = biological target: GlcNAc(b1-3)Gal(b1-4)GlcNAc(b1-3)Gal(b1-4)GlcNAc
# Procedure, shortened: as §1
# GlcNAc(b1-3)GalNAc = biological target: GlcNAc(b1-3)GalNAc
# Procedure, shortened: as §1
# GlcNAc(b1-3)Man = biological target: GlcNAc(b1-3)Man
# Procedure, shortened: as §1
# [26] = biological target: GlcNAc(b1-3)[GlcNAc(b1-4)][GlcNAc(b1-6)]GlcNAc
# Procedure, shortened: as §1
# [27] = biological target: GlcNAc(b1-3)[GlcNAc(b1-6)]Gal(b1-4)GlcNAc
# Procedure, shortened: as §1
# [28] = biological target: GlcNAc(b1-3)[GlcNAc(b1-6)]GalNAc
# Procedure, shortened: as §1
# [29] = biological target: GlcNAc(b1-4)Gal(b1-4)GlcNAc
# Procedure, shortened: as §1
binder,measurement,setting,value
B1,glycan array binding signal (z-score),[1],-0.415
same,glycan array binding signal (z-score),[2],-0.689
same,glycan array binding signal (z-score),[3],0.366
same,glycan array binding signal (z-score),[4],-0.547
same,glycan array binding signal (z-score),[5],-0.507
same,glycan array binding signal (z-score),Gal3S(b1-3)GalNAc,0.303
same,glycan array binding signal (z-score),Gal3S(b1-3)GlcNAc,0.396
same,glycan array binding signal (z-score),[6],-0.075
same,glycan array binding signal (z-score),Gal3S(b1-4)Glc,2.65
same,glycan array binding signal (z-score),Gal3S(b1-4)Glc6S,1.95
same,glycan array binding signal (z-score),Gal3S(b1-4)GlcNAc,-0.007
same,glycan array binding signal (z-score),Gal3S(b1-4)GlcNAc6S,1.93
same,glycan array binding signal (z-score),[7],0.55
same,glycan array binding signal (z-score),Gal3S4S(b1-4)GlcNAc,1.97
same,glycan array binding signal (z-score),Gal3S6S(b1-4)GlcNAc,2.29
same,glycan array binding signal (z-score),Gal3S6S(b1-4)GlcNAc6S,1.73
same,glycan array binding signal (z-score),Gal4S(b1-4)GlcNAc,0.156
same,glycan array binding signal (z-score),Gal4S6S(b1-4)GlcNAc,0.381
same,glycan array binding signal (z-score),Gal6S(b1-4)Glc,0.921
same,glycan array binding signal (z-score),Gal6S(b1-4)Glc6S,1.51
same,glycan array binding signal (z-score),Gal6S(b1-4)GlcNAc,0.224
same,glycan array binding signal (z-score),Gal6S(b1-4)GlcNAc6S,-0.606
same,glycan array binding signal (z-score),GalNAc(a1-3)Gal,-0.283
same,glycan array binding signal (z-score),GalNAc(a1-3)GalNAc,-0.582
same,glycan array binding signal (z-score),GalNAc(b1-3)Gal,-0.569
same,glycan array binding signal (z-score),[8],-0.528
same,glycan array binding signal (z-score),[9],-0.361
same,glycan array binding signal (z-score),GalNAc(b1-3)GalNAc,-0.376
same,glycan array binding signal (z-score),GalNAc(b1-4)GlcNAc,-0.317
same,glycan array binding signal (z-score),[10],-0.544
same,glycan array binding signal (z-score),Glc(a1-4)Glc,-0.033
same,glycan array binding signal (z-score),Glc(a1-6)Glc(a1-6)Glc,0.42
same,glycan array binding signal (z-score),Glc(b1-4)Glc,-0.215
same,glycan array binding signal (z-score),Glc(b1-6)Glc,-0.281
same,glycan array binding signal (z-score),GlcA(b1-3)Gal,-0.349
same,glycan array binding signal (z-score),GlcA(b1-3)GlcNAc,0.597
same,glycan array binding signal (z-score),GlcA(b1-6)Gal,-0.24
same,glycan array binding signal (z-score),[11],-0.688
same,glycan array binding signal (z-score),[12],0.121
same,glycan array binding signal (z-score),[13],1.87
same,glycan array binding signal (z-score),[14],0.255
same,glycan array binding signal (z-score),[15],4.14
same,glycan array binding signal (z-score),[16],4.58
same,glycan array binding signal (z-score),[17],-0.586
same,glycan array binding signal (z-score),[18],8.99
same,glycan array binding signal (z-score),[19],-0.411
same,glycan array binding signal (z-score),[20],-0.147
same,glycan array binding signal (z-score),[21],-0.568
same,glycan array binding signal (z-score),[22],1.27
same,glycan array binding signal (z-score),GlcNAc(b1-3)Gal,-0.31
same,glycan array binding signal (z-score),[23],0.142
same,glycan array binding signal (z-score),GlcNAc(b1-3)Gal(b1-4)Glc,0.077
same,glycan array binding signal (z-score),[24],-0.582
same,glycan array binding signal (z-score),[25],-0.366
same,glycan array binding signal (z-score),GlcNAc(b1-3)GalNAc,-0.632
same,glycan array binding signal (z-score),GlcNAc(b1-3)Man,0.937
same,glycan array binding signal (z-score),[26],-0.346
same,glycan array binding signal (z-score),[27],-0.028
same,glycan array binding signal (z-score),[28],-0.455
same,glycan array binding signal (z-score),[29],-0.539
